Over roughly 110,000 compounds, “z-score” has its median near -0.1; the highest 2% begin near 2. The list shows a part of the results. Active and inactive are the calls of the source.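 How the source made its calls: active means z-score in the third read window above 3 or below -3; inactive means the rest.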

From PubChem BioAssay AID488969 (Vanderbilt High Throughput Screening Facility, 2010) come the findings set out here.

The target in this assay is Metabotropic glutamate receptor 8 (Rattus norvegicus) (UniProt P70579). As to the kind of experiment: rat mGluR8 modulators via GIRK flux, primary screen, cell-based, thallium flux, HTS (AID 488969). The note with it: HEK293 rat mGluR8, GIRK (G protein-gated inwardly rectifying potassium channel) thallium flux, FluoZin2; at 10 µM; stronger effect = higher value; submaximal glutamate (EC20) added with thallium.
Chain of UniProt P70579 (P70579 whole entry, looked up): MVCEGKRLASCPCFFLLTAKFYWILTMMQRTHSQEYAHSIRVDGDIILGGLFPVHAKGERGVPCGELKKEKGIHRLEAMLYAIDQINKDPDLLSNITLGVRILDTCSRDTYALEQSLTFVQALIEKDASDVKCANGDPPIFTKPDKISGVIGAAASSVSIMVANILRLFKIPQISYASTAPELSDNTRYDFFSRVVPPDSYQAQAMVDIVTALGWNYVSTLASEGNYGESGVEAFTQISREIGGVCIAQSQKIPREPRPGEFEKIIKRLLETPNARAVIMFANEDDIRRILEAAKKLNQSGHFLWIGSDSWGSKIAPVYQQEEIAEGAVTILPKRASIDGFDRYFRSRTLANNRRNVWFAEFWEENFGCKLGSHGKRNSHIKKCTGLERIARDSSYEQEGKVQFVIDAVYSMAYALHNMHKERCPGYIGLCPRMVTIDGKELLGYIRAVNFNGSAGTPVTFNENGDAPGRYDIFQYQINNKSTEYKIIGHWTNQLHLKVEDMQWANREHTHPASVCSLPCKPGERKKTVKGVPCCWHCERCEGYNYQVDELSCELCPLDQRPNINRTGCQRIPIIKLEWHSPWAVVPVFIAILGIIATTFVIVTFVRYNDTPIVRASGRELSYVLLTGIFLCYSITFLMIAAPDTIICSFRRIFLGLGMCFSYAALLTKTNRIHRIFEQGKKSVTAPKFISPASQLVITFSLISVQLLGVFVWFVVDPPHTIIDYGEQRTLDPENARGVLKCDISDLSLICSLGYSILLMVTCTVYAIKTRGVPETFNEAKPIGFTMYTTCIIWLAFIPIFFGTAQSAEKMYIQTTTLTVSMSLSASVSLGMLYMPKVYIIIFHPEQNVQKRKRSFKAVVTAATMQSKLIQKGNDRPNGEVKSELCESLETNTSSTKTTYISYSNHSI
The compound `CCN(CC(=O)Nc1ccc(NC(C)=O)cc1)C(=O)C(c1ccccc1)c1ccccc1` yielded a z-score of -0.166.
The value for `O=S(=O)(c1cccc2nsnc12)N1CCN(C/C=C\c2ccccc2)CC1` was -0.124; that for `O=S(=O)(c1ccc(Cl)cc1)n1nnc2ccccc21` was 0.0539; that for `C=CCNC(=O)/C(=C\C=C\c1ccccc1)NC(=O)c1ccccc1Cl` was 1.16.
The value for `CO/N=C(\Cn1ncc(N2CCCC2)c(Cl)c1=O)c1ccc(Cl)cc1` was -2.69; that for `FC(F)Oc1ccccc1NC(=S)Nc1cccc(Cl)c1Cl` was active: 3.76; that for `CC1(C)OC2OC(COC(=O)c3ccccc3)C3OC(C)(C)OC3C2O1` (stereo not given) was -0.215.
The value for `CC12C(=O)N(NC(=O)c3ccncc3)C(=O)C1C1C=CC2C1` (stereo not given) was 0.0251; that for `O=C(NCCCN1CCCC1=O)NC12CC3CC(CC(C3)C1)C2` was -0.0455; that for `O=C(CSc1nnnn1-c1ccc2c(c1)OCCO2)Nc1nc2c(s1)CCCC2` was -0.372.
`CCOc1ccccc1OCc1nn2c(-c3ccc(C)cc3)nnc2s1` registered a z-score of -0.482.
With `O=C1N/C(=C\c2ccc(O)cc2)C(=O)c2ccccc21` the figure was -0.143.
The value for `CN(CC(=O)Nc1cc([N+](=O)[O-])ccc1Cl)Cc1ccc(Br)cc1` was -0.349; that for `O=C(CN1CCN(C(c2ccccc2)c2ccccc2)CC1)NC(=O)NCc1ccco1` was -1.55; that for `CCOc1ccc2nc(/N=C/c3c(C)[nH]n(-c4ccc(C)cc4)c3=O)sc2c1` was active: 10.6.
The value for `O=C(Nc1ccc(N2CCCCC2)cc1)c1ccc(F)cc1` was 1.28.
Compound `COc1ccccc1N1CCN(C(=O)C(C)N(c2ccccc2)S(C)(=O)=O)CC1` (stereo not given) returned a z-score of -0.277.
With `CC(=O)c1cc2c(cc1NC(=O)c1cc3nc(C(C)C)cc(C(F)(F)F)n3n1)OCO2` the figure was -0.248.
The value for `CCOC(=O)N1CCN(Cc2cn3ccccc3n2)CC1` was -0.351.
The value for `CCCCSc1nnc([C@H](C)NC(=O)OC(C)(C)C)o1` was 0.0965; that for `CCn1c(SCC(=O)N(C(C)C)C(C)C)nnc1-c1cc2ccccc2cc1O` was 1.16.
In turn, `CCOC(=O)c1cnc(SCc2nc(N)nc(Nc3ccccc3)n2)nc1N` had a z-score of -0.356.
The value for `O=C(Nc1ccc2c(c1)OCCO2)c1ccc(CN2CCOCC2)cc1` was 0.15; that for `Cn1c(=O)c2c(nc(SCC(=O)O)n2Cc2cccc(C(F)(F)F)c2)n(C)c1=O` was -0.0568.
For the compound `CCOC(=O)c1sc(NC(=O)CSc2ccccn2)c(C#N)c1C`, the z-score is -0.182.
With `O=C(CCC(=O)c1cccs1)OCC(=O)N1CCN(C(=O)c2ccco2)CC1` the figure was -1.48.
`COc1ccc(C(=O)n2nc(-c3ccc(C)cc3)nc2N)cc1OC` returned a z-score of 0.927.
`CCS(=O)(=O)N1CCN(C(=O)CC(C)C)CC1`: the z-score came out at 0.466.
With `COC(=O)Cc1cc(=O)n2[nH]cnc2n1` the figure was 0.566; with `O=C(NCCN1CCCCCC1)C1CC(=O)N(CCc2ccccc2)C1` (stereo not given), 0.636.
